# From the supplement of paper PMC4604168 (melanoma cell lines)
# The other results are listed elsewhere or left out. Single values are uncertain, as repeats are few or missing.
# Experiments:
# Assay in all cases: cell count relative to DMSO control; melanoma cells; higher = more viable cells
# Details in all cases: library dose: low library concentration; 72 h; first compound 0.4 µM
# [1] = system: WM115
# [2] = system: WM1716
# [3] = system: WM1745
# [4] = system: WM3526
# [5] = system: WM3619
# [6] = system: WM451Lu
# 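Note: cell number obtained by counting DAPI-stained nuclei in high-throughput microscope images with image analysis software, screen run in 1,536-well plates.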
SMILES,cell count [1],cell count [2],cell count [3],cell count [4],cell count [5],cell count [6]
C[C@@H](N)c1ccc(C(=O)Nc2ccnc3[nH]ccc23)cc1 + COc1ccc2c(c1)CCC1C2CCC2(C)C(NCCCCCCN3C(=O)C=CC3=O)CCC12 [U73122] (partner dose 0.4 µM),120%,76.2%,80.3%,79.7%,67.5%,105%
C[C@@H](N)c1ccc(C(=O)Nc2ccnc3[nH]ccc23)cc1 + Cn1cc(/C=C2\C(=O)Nc3cccnc32)c2ccccc21 [GW441756] (partner dose 0.4 µM),104%,78.3%,92%,114%,108%,99.9%
C[C@@H](N)c1ccc(C(=O)Nc2ccnc3[nH]ccc23)cc1 + O=C(O)c1ccc(-c2c[nH]c3ncc(-c4ccccc4)cc23)cc1C1CCCC1 [GSK650394] (partner dose 0.16 µM),105%,68.1%,88.4%,98.5%,99%,105%
CCCCCCCCCCCCCCCCCCOP(=O)([O-])OC1CC[N+](C)(C)CC1 [Perifosine] + CN(c1ncccc1CNc1nc(Nc2ccc3c(c2)CC(=O)N3)ncc1C(F)(F)F)S(C)(=O)=O [PF562271] (partner dose 0.08 µM),95.4%,84.2%,79.7%,97%,124%,85.7%
C[C@@H](N)c1ccc(C(=O)Nc2ccnc3[nH]ccc23)cc1 + C#Cc1cccc(Nc2ncnc3cc(OCCOC)c(OCCOC)cc23)c1 [erlotinib] (partner dose 0.8 µM),101%,71.8%,80.1%,99.4%,106%,86.7%
Cn1sc(=O)n(Cc2ccccc2)c1=O + CN(C)S(=O)(=O)c1ccc2c(c1)/C(=C/c1cc3c([nH]1)CCCC3)C(=O)N2 [SU6656] (partner dose 0.4 µM),62.6%,92.7%,88%,90.2%,94.7%,83.5%
CCCCCCCCCCCCCCCCCCOP(=O)([O-])OC1CC[N+](C)(C)CC1 [Perifosine] + O=c1cc(-c2cccc3c2Sc2ccccc2S3)oc(N2CCOCC2)c1 [KU55933] (partner dose 1 µM),106%,110%,73.7%,69.7%,90.8%,93.9%
C[C@@H](N)c1ccc(C(=O)Nc2ccnc3[nH]ccc23)cc1 + COc1ccc(COc2ccc(Cc3cnc(N)nc3N)cc2OC)cc1 [GW2580] (partner dose 1 µM),112%,66.7%,73.6%,98.1%,99.1%,101%
Cn1sc(=O)n(Cc2ccccc2)c1=O + CC(=O)O[C@@]12CO[C@@H]1C[C@H](O)[C@@]1(C)C(=O)[C@H](O)C3=C(C)[C@@H](OC(=O)[C@H](O)[C@@H](NC(=O)OC(C)(C)C)c4ccccc4)C[C@@](O)([C@@H](OC(=O)c4ccccc4)[C@H]21)C3(C)C [Docetaxel] (partner dose 0.0001 µM),82.1%,49.7%,52.5%,55.9%,61%,57.2%
Cn1sc(=O)n(Cc2ccccc2)c1=O + COc1ccc2c(c1)CCC1C2CCC2(C)C(NCCCCCCN3C(=O)C=CC3=O)CCC12 [U73122] (partner dose 0.4 µM),107%,76%,89.3%,70%,86.2%,69.4%
Cn1sc(=O)n(Cc2ccccc2)c1=O + CC1(C)NC(=O)N(c2ccc([N+](=O)[O-])c(C(F)(F)F)c2)C1=O [nilutamide] (partner dose 1 µM),92%,98.8%,107%,99.7%,91.7%,104%
Cn1sc(=O)n(Cc2ccccc2)c1=O + Cc1ccc(NC(=O)c2cccc(N(C)C)c2)cc1NC(=O)c1ccc(O)cc1 [ZM336372] (partner dose 2 µM),90.9%,115%,91.1%,96.4%,89.4%,96.5%
C[C@@H](N)c1ccc(C(=O)Nc2ccnc3[nH]ccc23)cc1 + O=C(O)c1ccc2c(c1)nc(Nc1cccc(Cl)c1)c1ccncc12 [CX4945] (partner dose 0.4 µM),119%,69.4%,85.6%,119%,77.2%,71.5%
C[C@@H](N)c1ccc(C(=O)Nc2ccnc3[nH]ccc23)cc1 + NC(=O)c1ccc(N(C(N)=O)c2c(F)cccc2F)nc1-c1ccc(F)cc1F [VX702] (partner dose 0.4 µM),114%,71.3%,82.2%,109%,123%,96.3%
CCCCCCCCCCCCCCCCCCOP(=O)([O-])OC1CC[N+](C)(C)CC1 [Perifosine] + Cn1c(Nc2ccc(C(F)(F)F)cc2)nc2cc(Oc3ccnc(-c4ncc(C(F)(F)F)[nH]4)c3)ccc21 [CHIR265] (partner dose 0.08 µM),60.3%,83.6%,64%,67.3%,70.4%,83.8%
CCCCCCCCCCCCCCCCCCOP(=O)([O-])OC1CC[N+](C)(C)CC1 [Perifosine] + C[C@@H](Oc1cc(-c2cnn(C3CCNCC3)c2)cnc1N)c1c(Cl)ccc(F)c1Cl [Crizotinib] (partner dose 0.2 µM),97.5%,117%,123%,91.6%,90.8%,83%
CCCCCCCCCCCCCCCCCCOP(=O)([O-])OC1CC[N+](C)(C)CC1 [Perifosine] + CS(=O)(=O)c1ccc(C(=O)Nc2ccc(Cl)c(-c3ccccn3)c2)c(Cl)c1 [vismodegib] (partner dose 1 µM),103%,96.8%,95.5%,83%,90.4%,95.5%
Cn1sc(=O)n(Cc2ccccc2)c1=O + OCc1c[nH]c2ccccc12 [Indole-3-carbinol] (partner dose 0.8 µM),105%,114%,100%,93.7%,77.8%,108%
